Reference: the supplement of paper PMC3334620
Whole data set: some 33,000 sequences, median “E-score (-0.5 to 0.5)” near -0.016, cut for the highest 2% near 0.32. The list shows a part of the results.

These sequences were tested against T1, Stp1 (UniProt B3LFK1) (assay: PBM E-score (8-mer binding enrichment) (E-score (-0.5 to 0.5)); higher = stronger / more preferred TF binding; most listed sequences are background and not binding sites). Conditions: protein concentration: 200 nM; construct: GST-full length.
T1 sequence: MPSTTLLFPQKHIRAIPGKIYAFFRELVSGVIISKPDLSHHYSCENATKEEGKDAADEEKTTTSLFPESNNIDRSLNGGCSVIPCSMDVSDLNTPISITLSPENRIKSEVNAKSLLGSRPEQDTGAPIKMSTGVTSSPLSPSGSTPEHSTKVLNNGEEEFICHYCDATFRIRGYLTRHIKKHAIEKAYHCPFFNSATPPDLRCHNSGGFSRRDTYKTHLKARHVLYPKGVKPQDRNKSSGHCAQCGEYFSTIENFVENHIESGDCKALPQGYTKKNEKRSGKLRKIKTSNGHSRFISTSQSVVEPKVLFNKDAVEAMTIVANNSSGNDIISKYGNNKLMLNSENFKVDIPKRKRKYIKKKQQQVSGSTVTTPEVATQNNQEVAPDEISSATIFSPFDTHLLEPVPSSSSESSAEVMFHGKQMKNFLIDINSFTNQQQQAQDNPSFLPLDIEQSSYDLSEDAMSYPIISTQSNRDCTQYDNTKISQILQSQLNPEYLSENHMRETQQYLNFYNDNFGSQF
Summary of the method: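 Yeast transcription factors carrying a GST tag, as full-length proteins or DNA-binding domains, were produced by PURExpress in vitro transcription/translation. About 100-200 nM protein was applied to universal all-10-mer Agilent arrays, double-stranded by primer extension on fresh or once-stripped slides. Bound protein was detected with fluorescent anti-GST, and scans were normalised with masliner. The Universal PBM Analysis Suite gave each ungapped eight-base word, pooled with its reverse complement, an E-score, a modified Wilcoxon-Mann-Whitney statistic.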
In the case of AACATGCA, the “PBM E-score” value was 0.0182.
In the case of GGTTTTAA, the “PBM E-score” value was 0.233.
With CCAACCCG the “PBM E-score” value was 0.0861.
GGCTTGAA was tested, and the “PBM E-score” value was -0.0921.
In the case of AGGGGTTA, the “PBM E-score” value was -0.381.
GCCTTCAC was tested, and the “PBM E-score” value was 0.125.
For CACTTTGG, the “PBM E-score” value was -0.0743.
For TCGATAAA, the “PBM E-score” value was 0.222.
With CATCTAAG the “PBM E-score” value was 0.04.
AGACCTAC was tested, and the “PBM E-score” value was -0.157.
For GCGAAAAA, the “PBM E-score” value was 0.0896.
With AGACGGCC the “PBM E-score” value was 0.121.
CAAATTGG was tested, and the “PBM E-score” value was 0.162.
For AAATGGGA, the “PBM E-score” value was -0.175.
For CGTGGATC, the “PBM E-score” value was -0.0246.
With GATGGCGC the “PBM E-score” value was 0.145.
With GTCACACA the “PBM E-score” value was -0.148.
In the case of ACTACTAT, the “PBM E-score” value was 0.231.
In the case of ATAGGCAT, the “PBM E-score” value was 0.149.
For CTGTCAAA, the “PBM E-score” value was 0.0845.
CGCCTGGA was tested, and the “PBM E-score” value was -0.156.
GAGCTCTA was tested, and the “PBM E-score” value was -0.101.
With CTTGAGCC the “PBM E-score” value was 0.116.
AATCAACA was tested, and the “PBM E-score” value was 0.2.
With ATCGGGCC the “PBM E-score” value was -0.199.
GCGAGTCC was tested, and the “PBM E-score” value was -0.222.
CTGTCGCC was tested, and the “PBM E-score” value was 0.132.
TAATTCAA was tested, and the “PBM E-score” value was 0.13.
In the case of GACTCGAA, the “PBM E-score” value was -0.148.
With ACGTAAGA the “PBM E-score” value was 0.022.
AGTGGAAA was tested, and the “PBM E-score” value was -0.0688.
For AAGCAGAC, the “PBM E-score” value was -0.0715.
In the case of TCTAGACA, the “PBM E-score” value was 0.0537.
With CTGAAAGA the “PBM E-score” value was 0.185.
In the case of CCGTGCGA, the “PBM E-score” value was 0.415.
For CTTCATAC, the “PBM E-score” value was 0.0869.
In the case of ATCAACAC, the “PBM E-score” value was 0.118.
With ACATCTAG the “PBM E-score” value was -0.0323.
For AACCGATA, the “PBM E-score” value was -0.0489.
In the case of TATCTCAA, the “PBM E-score” value was 0.127.
For AACTCCTG, the “PBM E-score” value was -0.0713.
In the case of GATTTGCA, the “PBM E-score” value was 0.0691.
ACCATGGC was tested, and the “PBM E-score” value was 0.192.
With AAAAGATA the “PBM E-score” value was 0.0925.
CCATCCCG was tested, and the “PBM E-score” value was -0.128.
CTTATCCA was tested, and the “PBM E-score” value was -0.0119.
In the case of GCCTTCGA, the “PBM E-score” value was 0.00438.
In the case of CGAGACCG, the “PBM E-score” value was -0.155.
For GGCAATAC, the “PBM E-score” value was 0.281.
In the case of ACGTCCGG, the “PBM E-score” value was -0.184.
AGCATCAA was tested, and the “PBM E-score” value was 0.164.
In the case of AGTTAGGC, the “PBM E-score” value was 0.0668.
For AACGTCAT, the “PBM E-score” value was -0.0499.
For CTCGCTGC, the “PBM E-score” value was 0.127.
In the case of AGTCCCGA, the “PBM E-score” value was -0.333.
In the case of AAGACCGT, the “PBM E-score” value was -0.147.
In the case of GTCCAACA, the “PBM E-score” value was -0.0759.
In the case of CTTATGGC, the “PBM E-score” value was 0.0174.
For TAACTCCA, the “PBM E-score” value was -0.136.
With GCGCCTCC the “PBM E-score” value was 0.293.
CTAGCCGA was tested, and the “PBM E-score” value was -0.0941.
In the case of ACGCTGAA, the “PBM E-score” value was -0.0121.
With CACTTGTC the “PBM E-score” value was -0.0163.
GGGCTTTA was tested, and the “PBM E-score” value was -0.0736.
In the case of GTCATCAA, the “PBM E-score” value was -0.102.
With AACTCAAC the “PBM E-score” value was -0.0044.
In the case of GCCAGGCC, the “PBM E-score” value was -0.294.
In the case of CAAATGAC, the “PBM E-score” value was -0.06.
AATAGCAC was tested, and the “PBM E-score” value was -0.165.
With GCGTAGTA the “PBM E-score” value was -0.101.
In the case of ATTTTCGC, the “PBM E-score” value was 0.26.
For CTGGCACA, the “PBM E-score” value was -0.187.
In the case of ATGGGATG, the “PBM E-score” value was -0.138.
In the case of ACCTAAGG, the “PBM E-score” value was -0.112.
For ATTTAACC, the “PBM E-score” value was -0.101.
In the case of GTTTAGCA, the “PBM E-score” value was -0.0167.
In the case of AGCAAACG, the “PBM E-score” value was -0.0548.
For ATGAGCGA, the “PBM E-score” value was 0.0356.
For TCTACAGA, the “PBM E-score” value was 0.0682.
With CACGTTGA the “PBM E-score” value was 0.138.
With GGTTCGGA the “PBM E-score” value was -0.131.
With GCGGCACA the “PBM E-score” value was 0.463.
GACCCGGC was tested, and the “PBM E-score” value was -0.102.
With ACCTCGGA the “PBM E-score” value was -0.0499.
In the case of AAGCGAGA, the “PBM E-score” value was -0.176.
For CCAAGAGA, the “PBM E-score” value was -0.104.
For AGATGCGA, the “PBM E-score” value was -0.0861.
In the case of CTCCGGGA, the “PBM E-score” value was -0.313.
In the case of CCAGTGGA, the “PBM E-score” value was -0.202.
With CCGACAAG the “PBM E-score” value was -0.00255.
For CCCTCTCC, the “PBM E-score” value was -0.29.
ATATGTGA was tested, and the “PBM E-score” value was 0.0699.
With AGTTGAAA the “PBM E-score” value was 0.103.
For CGTTTTGA, the “PBM E-score” value was 0.204.
For CATCTGCG, the “PBM E-score” value was 0.0364.
GTTGAAAC was tested, and the “PBM E-score” value was 0.0158.
For TGGCACAA, the “PBM E-score” value was 0.0994.
ATAACTGA was tested, and the “PBM E-score” value was 0.152.
CTGTGCGC was tested, and the “PBM E-score” value was -0.0119.
In the case of TACCTAAA, the “PBM E-score” value was 0.0628.
With GGGCGGAC the “PBM E-score” value was -0.171.
For AGGTTCAA, the “PBM E-score” value was 0.0944.
For ATAGTAGG, the “PBM E-score” value was 0.0599.
CTTCACAC was tested, and the “PBM E-score” value was 0.0403.
For AAGAAGCC, the “PBM E-score” value was 0.232.
In the case of CGAGATTA, the “PBM E-score” value was 0.214.
TCGTGGAA was tested, and the “PBM E-score” value was 0.0221.
For AGACTCTC, the “PBM E-score” value was -0.235.
In the case of CCATTAAC, the “PBM E-score” value was 0.0496.
For ACATTACT, the “PBM E-score” value was 0.0555.
For GAGTAATA, the “PBM E-score” value was 0.131.
With CCAGAAGC the “PBM E-score” value was -0.16.
TAATCTAA was tested, and the “PBM E-score” value was 0.145.
For GATACGGC, the “PBM E-score” value was 0.463.
For CTAATACA, the “PBM E-score” value was 0.00443.
In the case of GCACACGC, the “PBM E-score” value was 0.128.
With AAATAACA the “PBM E-score” value was 0.197.
For AAGACCCA, the “PBM E-score” value was -0.363.
For AGTGGGAT, the “PBM E-score” value was -0.0645.
CCTTCCCA was tested, and the “PBM E-score” value was 0.00934.
In the case of CGGTGAAG, the “PBM E-score” value was 0.011.
In the case of ACGTCAGA, the “PBM E-score” value was -0.183.
CTGGACTC was tested, and the “PBM E-score” value was -0.0665.
With AAGCCTTC the “PBM E-score” value was -0.101.
With GTATCATA the “PBM E-score” value was 0.29.
For CCATCAAA, the “PBM E-score” value was 0.0475.
For CAGATCAA, the “PBM E-score” value was -0.151.
In the case of GCCAAGCA, the “PBM E-score” value was -0.215.
In the case of ATAGCCCC, the “PBM E-score” value was -0.275.
AATTTTAG was tested, and the “PBM E-score” value was -0.0369.
AGTGCGGC was tested, and the “PBM E-score” value was 0.379.
ATACGCTC was tested, and the “PBM E-score” value was 0.0237.
In the case of CTACTCTC, the “PBM E-score” value was -0.215.
With GGCCTATA the “PBM E-score” value was -0.302.
In the case of CCATCGCA, the “PBM E-score” value was 0.0484.
In the case of AGAAATTG, the “PBM E-score” value was 0.171.
In the case of ACCTTCAA, the “PBM E-score” value was -0.118.
In the case of ACGAGCAC, the “PBM E-score” value was 0.113.
With CAAGTCGC the “PBM E-score” value was -0.159.
With CCATCTCA the “PBM E-score” value was 0.087.
CGGGTACA was tested, and the “PBM E-score” value was -0.00526.
CGCCCGCG was tested, and the “PBM E-score” value was 0.14.
For CACCGTAG, the “PBM E-score” value was -0.0209.
In the case of ACTCCTAT, the “PBM E-score” value was -0.00224.
In the case of CCTTTCGC, the “PBM E-score” value was 0.0733.
With CGTTGGTC the “PBM E-score” value was -0.0686.
CACGGGCC was tested, and the “PBM E-score” value was -0.0191.
In the case of TAGAACAA, the “PBM E-score” value was -0.14.
CACGACTA was tested, and the “PBM E-score” value was -0.18.
GCTAGCCA was tested, and the “PBM E-score” value was -0.279.
With GTTACCGA the “PBM E-score” value was -0.131.
In the case of CTCTATGC, the “PBM E-score” value was -0.00112.
With GCAACTAC the “PBM E-score” value was -0.00806.
CGAGGAGC was tested, and the “PBM E-score” value was -0.0887.
In the case of TCCAGCGA, the “PBM E-score” value was -0.151.
For AACAACTA, the “PBM E-score” value was 0.0535.
For CACCTCCG, the “PBM E-score” value was -0.0858.
For CACTAGAA, the “PBM E-score” value was -0.028.
In the case of CGAATTTC, the “PBM E-score” value was 0.134.
For CCTTTGGC, the “PBM E-score” value was -0.137.
With ATCTAGCG the “PBM E-score” value was -0.0611.
For AGTGGACA, the “PBM E-score” value was -0.157.
With AGTTCAGG the “PBM E-score” value was -0.268.
In the case of CGGGATAA, the “PBM E-score” value was -0.021.
For CCGTGGAC, the “PBM E-score” value was 0.192.
With CACAAACG the “PBM E-score” value was 0.207.
With GTCCGAAC the “PBM E-score” value was 0.00676.
For AGGGGCAC, the “PBM E-score” value was -0.0132.
For CGCGTATA, the “PBM E-score” value was 0.0732.
In the case of CGGATTAA, the “PBM E-score” value was 0.0648.
In the case of AGGTGCGC, the “PBM E-score” value was -0.0265.
With ATGTTGTC the “PBM E-score” value was 0.119.
